PubChem BioAssay AID463173 (ICCB-Longwood Screening Facility, Harvard Medical School, 2010)
About 1,700 (3.3%) of roughly 52,000 compounds were called active. Rule as the data show it: active = survival mostly below about 52% (no sharp cut-off); inactive = mostly above about 56%. The list shows a part of the results.

These molecules were tested on Wild type (assay: growth inhibition of S. aureus wild type versus tarO mutant, primary screen, teichoic acid synthesis inhibitors, RN4220, OD600 (AID 463173)). Details: S. aureus RN4220 wild type/DeltatarO growth, OD600, 18 h, hits give low values, screened at 18.75 µg/mL (by protocol).

SMILES | survival
COC(=O)c1nc2n(n1)C(c1cccc(Cl)c1)C(C(=O)Nc1ccccc1OC)=C(C)N2 (stereo unspecified) | inactive: 140%
O=CNC1CCCc2c1[nH]c1ccccc21 (stereo unspecified) | inactive: 110%
CCOc1ccc(NC(=O)CSc2ncc3c(n2)-c2ccc(Cl)cc2N(Cc2ccccc2)S3(=O)=O)cc1 | inactive: 80%
COc1ccc(-c2nc3sc(CCNC(=O)c4cc(OC)c(OC)c(OC)c4)c(C)n3n2)cc1 | inactive: 72%
COc1ccc(N2CCN(S(=O)(=O)c3ccc4oc(=O)c5ncn(C)c5c4c3)CC2)cc1 | inactive: 80%
O=C(CSc1nc2ccccc2nc1Cc1ccc(Cl)cc1)N1CCc2ccccc21 | inactive: 92%
Cc1ccc(-c2nc(C)c(CCNC(=O)c3ccco3)s2)cc1 | inactive: 99%
CCc1ccc(CNC(=O)CN2C(=O)c3cccnc3Oc3ccc(Cl)cc32)cc1 | inactive: 73%
CCN(c1cccc(C)c1)S(=O)(=O)c1nnc(NC(=O)C2CCCCC2)s1 | inactive: 84%
O=C(CSC1=Nc2ccccc2C2=NC(CC(=O)NC3CCCCC3)C(=O)N12)Nc1ccc(F)cc1 (stereo unspecified) | inactive: 71%
Cc1ccc(C)c(N2CCN(S(=O)(=O)c3cc(Br)cc4c3N(C(=O)C3CC3)CC4)CC2)c1 | inactive: 134%
COc1ccc(C)cc1NC(=O)c1oc2ccc(S(=O)(=O)N3CCCCC3)cc2c1C | inactive: 66%
Cc1ccc(SCc2[nH]nc3c2C(c2ccoc2)C(C#N)=C(N)O3)cc1 (stereo unspecified) | inactive: 108%
CCOc1ccc(C2c3[nH]c4ccccc4c3CCN2C(=O)CCc2ccccc2)cc1 (stereo unspecified) | inactive: 136%
CCOc1ccc(CCNC(=O)c2sc3nc4n(c(=O)c3c2C)CCCC4)cc1OCC | inactive: 111%
CCOC(=O)c1ccc(NC(=O)CCn2c(=O)c3cccn3c3ccccc32)cc1 | inactive: 107%
COc1cc(C(=O)NCCCc2nc3ccccc3n2CC(C)C)cc(OC)c1OC | inactive: 67%
O=C(C1CCN(S(=O)(=O)c2ccc(Br)s2)CC1)N1CCN(c2cccc(Cl)c2)CC1 | inactive: 88%
Cc1ccc(Sc2c(C)nn(C(=O)COc3ccccc3Br)c2C)cc1 | inactive: 90%
NC(=O)c1c(NC(=O)c2nc(SCc3ccccc3F)ncc2Cl)sc2c1CCCC2 | inactive: 92%
CCOC(=O)c1c(NC(=O)c2ccc(S(=O)(=O)N3CCC(C)CC3)cc2)sc2c1CCN(C)C2 | inactive: 132%
Cc1ccc2[nH]c(CSc3nnc(NC(=O)COc4ccccc4)s3)cc(=O)c2c1 | inactive: 105%

SMILES | survival
O=C(Nc1nc2ccc(S(=O)(=O)N3CCCC3)cc2s1)c1cccc(F)c1 | inactive: 63%
CCOC(=O)c1sc2ncn(CC(=O)Nc3ccc(N(C)C)cc3)c(=O)c2c1C | inactive: 89%
Cc1cc(C)cc(-n2ccnc2SCC(=O)Nc2nnc(C)s2)c1 | inactive: 77%
CC(=O)Nc1ccc(C(=O)CSc2nnnn2C(C)C)cc1 | inactive: 111%
CCN1CCN(CCC(=O)Nc2ccc(OC)cc2)CC1 | inactive: 107%
CCOc1ccc2nc(N3CCCC(C(=O)Nc4c(C)cccc4C)C3)sc2c1 (stereo unspecified) | inactive: 82%
COc1ccc(OC)c(CNC(=O)c2nn(-c3ccc(OC)c(Cl)c3)c(=O)c3c2c2ccccc2n3C)c1 | inactive: 134%
O=C(O)CCNC(=O)c1ccc(Br)o1 | inactive: 102%
CCS(=O)(=O)N1CCc2cc(C(=O)Nc3ccc(OC)c(Cl)c3)ccc21 | inactive: 83%
CCCCn1cc(S(=O)(=O)c2ccc(C)c(C)c2)c(=O)c2cc(F)c(N3CCCC(C)C3)cc21 (stereo unspecified) | inactive: 68%
COc1ccc(CCNC(=O)CCCn2c(=O)c3ccccc3n(Cc3cccc(Cl)c3)c2=O)cc1OC | inactive: 92%
Cc1ccc(-c2nc3scc(CCNC(=O)Cc4ccc(Cl)cc4)n3n2)cc1 | inactive: 80%
CCOc1ccc(N(C(=O)CC(C)C)S(=O)(=O)c2ccc3c(c2)oc(=O)n3C)cc1 | inactive: 85%
COc1ccc(CCNS(=O)(=O)c2ccc3c(c2)CC(C)N3C(=O)C2CCC2)cc1OC (stereo unspecified) | inactive: 86%
CCOc1ccc(CC(=O)NCCc2csc(-c3ccc(C)cc3)n2)cc1 | inactive: 72%
O=C(/C=C/c1ccccc1)N1CCN(CCN2C(=O)C3C4C=CC(C4)C3C2=O)CC1 (stereo unspecified) | inactive: 124%
COc1ccc(S(=O)(=O)n2nc(C)c(S(=O)(=O)N3CCC(C)CC3)c2C)cc1C | inactive: 57%
CCC(=O)Nc1c(C(=O)N2CCN(c3ccc(F)cc3)CC2)oc2ccccc12 | inactive: 82%
CCCn1c(SCc2nc(-c3ccc(OC)cc3OC)no2)nnc1-c1ccc(Cl)cc1 | inactive: 88%
Cc1cccc(C)c1NC(=O)CSc1nc(-c2ccccc2)nc2c1Cc1c(CO)cnc(C)c1O2 | inactive: 88%
CCC1CN(C(=O)N2CCC(C(=O)NCCc3ccc(Cl)cc3)CC2)c2ccccc2O1 (stereo unspecified) | inactive: 79%
O=C1NCCN(Cc2ccc(F)cc2)C1=O | inactive: 51%

SMILES | survival
CCN(CC)c1ccc(NS(=O)(=O)c2ccc(-c3cnc(C4CC4)o3)cc2)c(C)c1 | inactive: 77%
Cn1c(SCc2ccc(F)cc2)nc2ccc(C(=O)NCc3ccc(Cl)cc3)cc21 | inactive: 83%
COc1ccc(-c2noc(CN(C(=O)COc3cc(C)c(Br)c(C)c3)C(C)C)n2)cc1 | active: 7%
COc1ccc(NC(=O)Cn2nnc(C(=O)Nc3ccc(F)c(Cl)c3)c2N)cc1OC | inactive: 32%
Cc1ccc(NC(=O)Cn2cc(C(=O)C3CC3)c3ccccc32)cc1 | inactive: 162%
COC(=O)c1scc(-c2ccc(C)cc2)c1S(=O)(=O)Nc1cc(Cl)ccc1C | inactive: 75%
Cn1c(=O)c(=O)n(C)c2cc(N3CCOCC3)c(NS(=O)(=O)c3ccc(Cl)cc3)cc21 | active: -3%
Cc1nn(Cc2ccc(F)cc2)c(C)c1NC(=O)c1cc(CC(C)C)on1 | inactive: 72%
CCOC(=O)c1[nH]c2c(c1Cc1ccccc1)C(=O)CC(c1ccc(Cl)cc1)C2 (stereo unspecified) | inactive: 93%
CCc1ccc(S(=O)(=O)c2cn(CC(=O)Nc3ccc(C)cc3)c3ccccc3c2=O)cc1 | inactive: 78%
N#C/C(=C/c1ccc(N2CCCCC2)o1)C(=O)NCCc1c[nH]c2ccccc12 | inactive: 128%
CCOc1ccccc1NC(=O)c1sc2nc3n(c(=O)c2c1C)CCCCC3 | inactive: 87%
COCCOC(=O)c1c(C)n(S(=O)(=O)c2ccc(C)cc2)c2ccc(NS(=O)(=O)c3ccc(C)cc3)cc12 | inactive: 86%
Cc1ccc(CNC(=O)c2ccc3nc(N4CCCCC4)sc3c2)cc1 | inactive: 73%
COc1cccc(C(c2sc3nc(-c4ccco4)nn3c2O)N2CCC(O)CC2)c1 (stereo unspecified) | inactive: 128%
CCOC(=O)c1ccc(NC(=O)c2c(NC(C)=O)sc3c2CCC(C)C3)cc1 (stereo unspecified) | inactive: 54%
CCOc1ccc(CCNC(=O)c2ccc3c(Cl)c4c(nc3c2)CCCC4)cc1 | inactive: 71%
O=S(=O)(NCCc1nnc2ccc(SCc3ccc(Cl)cc3Cl)nn12)c1ccccc1 | inactive: 62%
Cc1cc(C)cc(NC(=O)CSc2nc3c(oc4ccccc43)c(=O)n2-c2ccccc2F)c1 | inactive: 102%
COc1ccc2cc3cc(C(=O)NCc4ccc(C)cc4)oc3nc2c1 | inactive: 89%
COc1ccc(OC)c(CCNC(=O)c2ccc3c(c2)N(Cc2ccc(C)cc2)CCS3)c1 | inactive: 80%
CCc1cccc(OCC(=O)Nc2ccc(S(=O)(=O)Nc3cc(C)nc(C)n3)cc2)c1 | inactive: 94%

SMILES | survival
COc1ccc(Nc2cc(C(=O)NCCc3ccc(C)cc3)c3ccccc3n2)c(OC)c1 | inactive: 81%
O=c1[nH]n(CC2COC3(CCCCC3)O2)c(=O)c2ccccc12 (stereo unspecified) | inactive: 105%
Cc1ccc(-c2nnc(Nc3ccc(O)cc3)c3ccccc23)cc1S(=O)(=O)N1CCN(C)CC1 | inactive: 70%
COc1cccc(C(=O)COc2cccc(NC(=O)c3ccco3)c2)c1 | inactive: 113%
CCOCCCNC(=O)C1CCN(c2nn3cc(-c4ccc(F)cc4)nc3s2)CC1 | inactive: 75%
CCCCOc1ccc(C(=O)Nc2nnc3n2CCS3)cc1 | inactive: 95%
CCOC(=O)N1CCC(NC(=O)c2c(C)nn(-c3ccc(C)cc3)c2-n2cccc2)CC1 | inactive: 65%
CCOc1ccc(-c2nn(CC(=O)NC3CCCCC3)c3c2cnc2ccc(C)cc23)cc1 | inactive: 94%
CCCn1c2ccccc2c2cnn(CC(=O)NCCc3ccc(OCC)cc3)c(=O)c21 | active: -6%
CCOc1ccc(NC(=O)CCNS(=O)(=O)c2ccc3c(c2)oc(=O)n3C)cc1 | inactive: 101%
Cc1ccc(C(=O)NCCc2ccc(Cl)cc2)cc1-n1c(C)nc2cccnc21 | inactive: 71%
COc1cc(-c2noc(-c3ccc(NCc4ccccc4)c([N+](=O)[O-])c3)n2)cc(OC)c1OC | inactive: 85%
COc1ccc(Cl)cc1NC(=O)c1sc(-n2nc(C)c(Cc3ccccc3)c2C)nc1C | inactive: 84%
Cc1ccc(C)c(Cn2c3ccccc3c3cnn(CC(=O)NCCC4=CCCCC4)c(=O)c32)c1 | inactive: 82%
COc1ccc(NC(=O)Cn2nnc3sc4c(c3c2=O)CCC(C)C4)c(OC)c1 (stereo unspecified) | inactive: 134%
COc1ccccc1CNC(=O)c1ccc2c(c1)N(Cc1cccc(C)c1)C(=O)c1ccccc1S2(=O)=O | inactive: 90%
S=C(Nc1ccccc1)N1CCN(c2ccccc2)CC1 | inactive: 110%
CCn1c(=O)c2cc(C(=O)N(CCN(C)C)Cc3ccccc3)sc2c2ccccc21 | inactive: 75%
Cc1nnc(SCc2ccccc2)c2cc3sccc3n12 | inactive: 55%
CCOc1cc(C(=O)N2CC(=O)Nc3ccc(C)cc3C2c2ccccc2)cc(OCC)c1OCC (stereo unspecified) | inactive: 139%
